Laboratory results: patent US6258839A, “Isolation of naturally occuring isoflavanone and some clinical uses thereof” (priority 1997, dated 2001)

How the values were obtained:
A17/Y181C, K103N = experiment: activity against HIV mutants: A17/Y181C, K103N; format: cell-based, HIV-1
Thiazolo/V1081 = experiment: activity against HIV mutants: Thiazolo/V1081; format: cell-based, HIV-1; conditions: Human immunodeficiency virus 1

With `COc1c(O)cc(C2COc3cc(O)cc(O)c3C2=O)cc1CC=C(C)C` (racemic) [PMZ-1] the EC50 (A17/Y181C, K103N; Human immunodeficiency virus 1) was 4.2 µM, the “activity against double mutants (codons 103 and 181)” value (A17/Y181C, K103N; isolated by Merck Sharp & Dohme) was “moderate activities” and the EC50 (Thiazolo/V1081) was greater than 5 µM.
